Laboratory results taken from PMC4336329 (PLoS ONE, 2015).
In all, about 310,000 compounds went through this assay and about 14,000 (4.5%) showed an effect of 50% or more. The effect is printed as a negative number. Some of the results follow.

Target: human ether-à-go-go-related gene (hERG) potassium channel (human, UniProt Q12809)
Assay: primary screen, population patch clamp on CHO cells stably expressing hERG
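Further: peak tail current of the secondary pulse compared with the same well before compound.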

Sequence of human ether-à-go-go-related gene (hERG) potassium channel (Q12809 whole entry, looked up): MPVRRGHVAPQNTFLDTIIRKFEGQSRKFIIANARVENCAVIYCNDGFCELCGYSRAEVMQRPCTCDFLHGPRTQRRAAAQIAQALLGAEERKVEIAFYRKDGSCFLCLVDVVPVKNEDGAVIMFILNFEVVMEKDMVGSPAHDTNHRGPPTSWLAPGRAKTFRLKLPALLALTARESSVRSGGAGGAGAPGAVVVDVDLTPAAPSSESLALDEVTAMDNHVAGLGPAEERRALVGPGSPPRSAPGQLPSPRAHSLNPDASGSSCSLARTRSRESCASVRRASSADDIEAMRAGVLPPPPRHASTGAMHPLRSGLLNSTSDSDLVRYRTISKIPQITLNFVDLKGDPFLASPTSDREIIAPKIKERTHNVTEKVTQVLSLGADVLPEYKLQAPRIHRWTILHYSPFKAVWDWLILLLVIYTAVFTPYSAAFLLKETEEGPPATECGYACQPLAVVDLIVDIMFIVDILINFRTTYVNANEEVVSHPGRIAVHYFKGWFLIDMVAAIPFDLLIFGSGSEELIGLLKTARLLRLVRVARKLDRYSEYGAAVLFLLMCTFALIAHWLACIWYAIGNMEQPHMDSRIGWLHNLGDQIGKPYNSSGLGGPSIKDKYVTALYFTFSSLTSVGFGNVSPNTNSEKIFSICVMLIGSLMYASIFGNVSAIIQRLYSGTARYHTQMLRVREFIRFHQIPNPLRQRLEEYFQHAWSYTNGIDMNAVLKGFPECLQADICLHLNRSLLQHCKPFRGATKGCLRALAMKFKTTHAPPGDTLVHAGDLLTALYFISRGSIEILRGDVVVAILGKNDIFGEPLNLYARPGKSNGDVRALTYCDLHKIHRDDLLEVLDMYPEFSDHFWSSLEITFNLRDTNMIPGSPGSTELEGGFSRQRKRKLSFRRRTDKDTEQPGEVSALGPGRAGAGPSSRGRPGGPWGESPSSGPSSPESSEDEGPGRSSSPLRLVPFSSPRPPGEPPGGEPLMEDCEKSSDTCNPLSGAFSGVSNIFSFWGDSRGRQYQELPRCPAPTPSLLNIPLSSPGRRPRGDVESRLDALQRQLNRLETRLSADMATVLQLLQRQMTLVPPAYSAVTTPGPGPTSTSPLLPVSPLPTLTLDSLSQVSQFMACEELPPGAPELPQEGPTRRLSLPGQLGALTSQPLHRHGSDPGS

Row | SMILES | hERG current change (%, negative = inhibition) at 10uM
1 | Cn1cnc([N+](=O)[O-])c1Sc1nc2ccccc2[nH]1 | 5.38%
2 | O=C(c1ccccc1)C(c1ccccc1)c1ccccc1 | -2.7%
3 | COCCn1c(C)cc(/C=C(\C#N)C(=O)OCC(=O)N(C)c2c(N)n(Cc3ccccc3)c(=O)[nH]c2=O)c1C | 2.84%
4 | O=C(O)CCN1C(=O)S/C(=C\c2cccnc2)C1=O | 13.6%
5 | COc1ccc(-c2csc(NC(=O)CSc3nc(C)nc4sc(C(=O)O)c(C)c34)n2)cc1 | 11.9%
6 | Cc1ccc(S(=O)(=O)NCC(=O)NCc2cc(=O)n(C)c(=O)n2C)cc1 | 26.1%
7 | Cc1ccc(NC(=O)CC2CS(=O)(=O)CC2CC(=O)Nc2ccc(C)c(C)c2)cc1C (stereo not drawn) | 6.08%
8 | FC(F)(F)c1cccc(N2CCN(CC3CC=CCC3)CC2)c1 (stereo not drawn) | -4.59%
9 | CN(C(=O)COC(=O)c1cn(C)c2ccccc12)C1CCCCC1 | 6.55%
10 | COc1ccc(Cl)cc1NC(=O)C(=O)NCc1ccncc1 | -27.5%
11 | O=C(NC(=S)N1CCOCC1)c1ccc(F)cc1 | 24.4%
12 | O=C(NCc1ccncc1)C(=O)NCC(c1ccco1)N1CCN(c2ccc(F)cc2)CC1 (stereo not drawn) | -27.2%
13 | CCC(C(=O)Nc1ccccc1)c1ccccc1 (stereo not drawn) | 7.86%
14 | Cc1ccc(Nc2ncccc2C(N)=O)cc1 | 19.5%
15 | O=C(NNc1ccccc1)C(=O)NNS(=O)(=O)c1ccc(CCCl)cc1 | 2.82%
16 | Cc1nnc(NC(=O)CSc2nc3c(c(=O)n(C)c(=O)n3C)n2C(C)C)s1 | -0.769%
17 | Cc1ccc(C(=O)Cn2c(C(=O)OCCO)cc3ccccc32)cc1 | 6.92%
18 | Cc1ccc(OCCNc2cc(N3CCN(CCO)CC3)ccc2[N+](=O)[O-])cc1C | -7.99%
19 | CC1CCCCN1C(=O)c1cc2nc(-c3ccccc3)cc(-c3ccccc3)n2n1 (stereo not drawn) | -14.5%

Row | SMILES | hERG current change (%, negative = inhibition) at 10uM
20 | O=C(CCCN1C(=O)c2ccccc2C1=O)Nc1ccccn1 | -8.39%
21 | COCc1cc(C)nc(SCC(=O)NC2CCCCC2C)c1C#N (stereo not drawn) | 17%
22 | CCOc1ccccc1CSc1nc2ccccc2[nH]1 | -15.2%
23 | COc1ccc(S(=O)(=O)N2CCCCC2)cc1NC(=S)Nc1ccccc1 | 7.79%
24 | COC(=O)C(C)N(C(=O)c1cccc(Cl)c1)c1c(C)cccc1C (stereo not drawn) | 15%
25 | CC(=O)c1cccc(NC(=O)C2CCN(S(=O)(=O)c3ccc(C)cc3)CC2)c1 | 4.47%
26 | COc1ccccc1-n1c(SCC(=O)Nc2ccc(NC(C)=O)cc2)nc2c([nH]c3ccccc32)c1=O | 7.94%
27 | NS(=O)(=O)c1ccc(CCNC(=O)COC(=O)C2CCC2)cc1 | 12%
28 | O=C(C1CCCO1)N1CCN(C(=S)Nc2cc(F)cc(F)c2)CC1 (stereo not drawn) | -7.26%
29 | CCOC(=O)c1cccc(NS(=O)(=O)c2c(C)[nH]c(C)c2C(=O)N2CCCC2)c1 | 11%
30 | CCCCC(CC)COCCCN=Cc1c(O)[nH]c(=S)[nH]c1=O (stereo not drawn) | -8.48%
31 | CC(=O)Nc1ccc(C(=O)OCC(=O)Nc2ccccc2F)cc1 | 14.2%
32 | Nc1ccc(C(=O)c2cccs2)cc1[N+](=O)[O-] | 17%
33 | CCc1nccn1S(=O)(=O)c1cccc([N+](=O)[O-])c1 | 9.64%
34 | O=C(COc1ccccc1F)Nc1ccc(S(=O)(=O)NCc2ccco2)cc1 | -10.3%
35 | CCOC(=O)C(=O)NC(C)c1ccccc1 (stereo not drawn) | 8.55%
36 | CC(C)c1nnc(NC(=O)c2sc3ccccc3c2Cl)s1 | -4.6%
37 | Cc1c(CCOC(=O)c2cccc([N+](=O)[O-])c2)sc[n+]1CC(=O)c1ccccc1.[Br-] | -51.1%
38 | CCOC(=O)c1c(NC(=O)CSc2nnc(C)c(=O)[nH]2)sc(C)c1C | 22.9%

Row | SMILES | hERG current change (%, negative = inhibition) at 10uM
39 | O=C(O)CCSCCCN1C(=O)c2cccc3cccc(c23)C1=O | 4.17%
40 | CC(=O)c1cc(C#N)c(SCc2ccccn2)nc1C | 4.21%
41 | O=C(Cn1cnc2c(nnn2Cc2ccc(F)cc2)c1=O)NCC1CCCO1 (stereo not drawn) | 1.61%
42 | Cc1c(Br)c([N+](=O)[O-])nn1CC(=O)Nc1nccs1 | 0.945%
43 | Cc1cc2n(n1)SC(Nc1cc(Cl)ccc1Cl)N2 (stereo not drawn) | 10.2%
44 | Cn1c(SCC(=O)NCc2ccc3c(c2)OCO3)nnc1-c1cccs1 | -17.1%
45 | Cc1ccc(-c2nnc(N3CCOCC3)c3ccccc23)cc1S(=O)(=O)NCc1cccnc1 | -24.2%
46 | O=C(OCC#CCSc1nnc(-c2ccc([N+](=O)[O-])cc2)o1)c1cccs1 | -10.1%
47 | CCC(C)NC(=O)C1c2ccccc2Oc2ccccc21 (stereo not drawn) | 10.2%
48 | Cc1cc(C)c(S(=O)(=O)c2cc(F)ccc2C)c(=O)[nH]1 | 18.1%
49 | O=C(N/N=C\c1cccnc1)C1c2ccccc2Oc2ccccc21 | 0.415%
50 | CCCSc1oc(-c2ccco2)nc1S(=O)(=O)c1ccc(C)cc1 | 10.2%
51 | CC(C)NC(=O)NC(=O)COC(=O)c1ccc(NC(=O)CC#N)cc1 | 3.15%
52 | Cc1ccc(C(=O)c2coc3ccc(O)cc23)cc1 | 23.2%
53 | O=C(CN1C(=O)NC2(CCCC2)C1=O)OCc1ccc(Cl)cc1Cl | -20.9%
54 | COC(=O)Cc1ccc2oc(-c3cccnc3)nc2c1 | 19.8%
55 | O=C(NC1CCN(Cc2ccc3ccccc3c2)CC1)c1ccccc1 | -66.3%
56 | O=C(NS(=O)(=O)c1ccc(Cl)cc1)c1ccccc1 | 2.47%
57 | Cc1[nH]c2ccccc2c1C(=O)/C=C\c1ccccc1Cl | 11.6%
